± gives the uncertainty stated by the source. Shown are siRNA guide strands that differ only in the seed, positions 2 to 7.
What was measured:
M565 = experiment: cell viability relative to lipid-only control; higher = less toxic; settings: concentration: 10 nM; 96 h; Mus musculus
H460 = experiment: as above; settings: concentration: 10 nM; 96 h; Homo sapiens
HeyA8 = experiment: as above; settings: concentration: 10 nM; 96 h; Homo sapiens
3LL = experiment: cell viability relative to siNT1 control; HeyA8 human ovarian and H460 human lung cancer; M565 mouse liver and 3LL mouse lung cancer; siNT1 is a non-toxic control siRNA; higher = less toxic; settings: concentration: 10 nM; 96 h; Mus musculus
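For cell viability relative to lipid-only control in this document: reverse lipid transfection in 384-well plates, in triplicate, of duplexes on a non-toxic 19mer backbone with passenger strand 2′-O-methylated at positions 1 and 2, luminescence viability read-out.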
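For cell viability relative to siNT1 control in this document: Luminescence-based viability of cells reverse transfected in 384-well plates with lipid-complexed siRNAs built on a non-toxic 19mer backbone whose passenger strand carries 2′-O-methyl groups at positions 1 and 2, triplicates.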

| Sequence | cell viability (M565) [%] | cell viability (H460) [%] | cell viability (HeyA8) [%] | cell viability (3LL) [%] |
| --- | --- | --- | --- | --- |
| UCAUUGAACAUGUAAACCAAA | 58 ± 14 | 51.1 ± 5 | 75.4 ± 2.3 | 83.3 ± 12 |
| UGCUUAAACAUGUAAACCAAA | 88 ± 1.7 | 71.9 ± 9.5 | 81.6 ± 6.3 | 83.4 ± 10 |
| UUGGUCAACAUGUAAACCAAA | 122 ± 25 | 44.2 ± 1.9 | 87.1 ± 3.5 | 94.2 ± 11 |
| UAGUAUCACAUGUAAACCAAA | 36.2 ± 3.1 | 44.6 ± 10 | 16.6 ± 1.7 | 71.1 ± 6.1 |
| UGAGAGGACAUGUAAACCAAA | 4.28 ± 1 | 27.3 ± 2.3 | 18.7 ± 0.65 | 31.3 ± 5.2 |
| UCUCAGAACAUGUAAACCAAA | 66.1 ± 6 | 35.8 ± 1.4 | 89.7 ± 10 | 92.8 ± 15 |
| UACGAAGACAUGUAAACCAAA | 67.3 ± 7.1 | 80.5 ± 12 | 89.4 ± 9 | 83.1 ± 8.6 |
| UUCAGCUACAUGUAAACCAAA | 49 ± 2.4 | 34.2 ± 2.3 | 33.7 ± 5.6 | 11.6 ± 1.2 |
| UAAUGGUACAUGUAAACCAAA | 14.7 ± 4.1 | 75.1 ± 13 | 55.6 ± 3.4 | 69.7 ± 6.7 |
| UGCUACGACAUGUAAACCAAA | 85.3 ± 5.7 | 62.8 ± 4.6 | 52.4 ± 4.6 | 85.7 ± 14 |
| UCAUACUACAUGUAAACCAAA | 81.8 ± 9.6 | 20.7 ± 1.3 | 61.1 ± 6.9 | 98.3 ± 11 |
| UGUUACCACAUGUAAACCAAA | 9.86 ± 2.8 | 34.3 ± 3.1 | 12.1 ± 1.1 | 11.1 ± 6 |
| UUUGUAUACAUGUAAACCAAA | 94.9 ± 15 | 89.9 ± 8.5 | 88.7 ± 7.4 | 65.2 ± 7.6 |
| UGUGAUAACAUGUAAACCAAA | 65 ± 8 | 54.5 ± 7 | 63.1 ± 9.6 | 91.44 ± 0.91 |
| UAACCCCACAUGUAAACCAAA | 27.6 ± 4.1 | 16.7 ± 4 | 7.76 ± 0.57 | 14.5 ± 1.8 |
| UAAGCACACAUGUAAACCAAA | 43.6 ± 5.4 | 86.2 ± 19 | 70 ± 12 | 75 ± 6.5 |
| UUAAGGAACAUGUAAACCAAA | 61 ± 5.3 | 79.4 ± 9.2 | 85.6 ± 5.3 | 83.2 ± 10 |
| UGGAACUACAUGUAAACCAAA | 24.1 ± 2.6 | 48.9 ± 5.6 | 59.9 ± 5.8 | 39.8 ± 12 |
| UCGUGUUACAUGUAAACCAAA | 20.6 ± 2.6 | 81.4 ± 14 | 72.5 ± 7 | 90.2 ± 13 |
| UAGCUUUACAUGUAAACCAAA | 48.4 ± 14 | 66.2 ± 9.3 | 40.6 ± 1.7 | 83.1 ± 2.2 |

| Sequence | cell viability (M565) [%] | cell viability (H460) [%] | cell viability (HeyA8) [%] | cell viability (3LL) [%] |
| --- | --- | --- | --- | --- |
| UGGCACAACAUGUAAACCAAA | 27.2 ± 1.7 | 29.8 ± 12 | 23.4 ± 0.9 | 43.9 ± 4.4 |
| UCUGGCCACAUGUAAACCAAA | 12.9 ± 2.6 | 50.4 ± 0.52 | 55.2 ± 2.1 | 72.9 ± 8.3 |
| UCAGGAAACAUGUAAACCAAA | 66.6 ± 5.3 | 66.2 ± 14 | 88.3 ± 9.2 | 95 ± 22 |
| UGUCUCGACAUGUAAACCAAA | 10.3 ± 3.4 | 32.9 ± 4 | 28 ± 1.9 | 18 ± 4.9 |
| UCUCGUCACAUGUAAACCAAA | 40.8 ± 15 | 58.7 ± 11 | 37.8 ± 4.7 | 83.2 ± 8.4 |
| UCAUAUGACAUGUAAACCAAA | 74.7 ± 11 | 53.2 ± 8.9 | 83 ± 5.3 | 99.4 ± 15 |
| UCUUCGCACAUGUAAACCAAA | 49.5 ± 13 | 63 ± 2.6 | 57 ± 5 | 87.6 ± 15 |
| UUUUUCCACAUGUAAACCAAA | 69.9 ± 2.8 | 45.5 ± 5.1 | 39.5 ± 4.9 | 19.1 ± 0.57 |
| UCAACUCACAUGUAAACCAAA | 47.5 ± 11 | 61.1 ± 6.4 | 68.9 ± 6.2 | 98.6 ± 12 |
| UGAGGCUACAUGUAAACCAAA | 3.52 ± 1.1 | 26.8 ± 3.5 | 10.9 ± 0.47 | 5.02 ± 1.1 |
| UGUUUAAACAUGUAAACCAAA | 85.8 ± 21 | 59.9 ± 7.5 | 74.3 ± 8.1 | 96 ± 11 |
| UCAGGAUACAUGUAAACCAAA | 23.1 ± 2.8 | 44.2 ± 5.9 | 60.9 ± 4.4 | 88.2 ± 18 |
| UGCUUCUACAUGUAAACCAAA | 32.8 ± 5 | 81.7 ± 17 | 23.7 ± 0.74 | 56.6 ± 12 |
| UCAAGGUACAUGUAAACCAAA | 13.9 ± 4.6 | 38.8 ± 1.7 | 55.4 ± 4.5 | 37.1 ± 11 |
| UUUGGUAACAUGUAAACCAAA | 80 ± 21 | 90.2 ± 9.4 | 105 ± 5.8 | 102 ± 6.7 |
| UACAAAAACAUGUAAACCAAA | 75.3 ± 14 | 84.7 ± 17 | 84.2 ± 3.2 | 91.7 ± 9.8 |
| UUGUCGGACAUGUAAACCAAA | 81.9 ± 14 | 69.2 ± 13 | 93.8 ± 6.1 | 52.1 ± 6 |
| UGCUACUACAUGUAAACCAAA | 33.7 ± 2 | 12.6 ± 0.96 | 17.4 ± 0.61 | 28.3 ± 6.9 |
| UACGUGAACAUGUAAACCAAA | 63.4 ± 11 | 76.9 ± 3.8 | 80.3 ± 12 | 87.8 ± 8.6 |
| UUGAUUGACAUGUAAACCAAA | 111 ± 2.4 | 84 ± 14 | 86.7 ± 2.6 | 87.6 ± 8.3 |

| Sequence | cell viability (M565) [%] | cell viability (H460) [%] | cell viability (HeyA8) [%] | cell viability (3LL) [%] |
| --- | --- | --- | --- | --- |
| UGCUUCAACAUGUAAACCAAA | 55.4 ± 7.1 | 80.7 ± 22 | 27 ± 3.3 | 72.6 ± 7.2 |
| UGAAGGUACAUGUAAACCAAA | 12 ± 1.7 | 56.1 ± 7.8 | 26.4 ± 2.5 | 2.29 ± 0.57 |
| UGGAUAUACAUGUAAACCAAA | 71.9 ± 18 | 61 ± 4.2 | 54.8 ± 12 | 88.4 ± 2.1 |
| UUUUAGUACAUGUAAACCAAA | 106 ± 14 | 81.1 ± 16 | 74.8 ± 7.4 | 100 ± 6.5 |
| UGUAAUCACAUGUAAACCAAA | 21.3 ± 2.8 | 34.9 ± 2.7 | 22 ± 2.4 | 59 ± 5.7 |
| UGCACACACAUGUAAACCAAA | 29.3 ± 2.7 | 48.5 ± 1.3 | 24.9 ± 0.51 | 52.5 ± 8.2 |
| UUCGAACACAUGUAAACCAAA | 70.3 ± 14 | 76.7 ± 2.4 | 78.5 ± 11 | 94.1 ± 14 |
| UGCGAACACAUGUAAACCAAA | 82.2 ± 4.3 | 93.9 ± 11 | 80.2 ± 8 | 88 ± 9.1 |
| UUACUGAACAUGUAAACCAAA | 68 ± 13 | 79 ± 6.5 | 102 ± 8.8 | 97.9 ± 13 |
| UUGAUGCACAUGUAAACCAAA | 52.3 ± 11 | 50.7 ± 6.2 | 52.4 ± 6.3 | 33.4 ± 5.2 |
| UAGCCAGACAUGUAAACCAAA | 29.3 ± 2.7 | 52.6 ± 5 | 37.1 ± 2.7 | 41.4 ± 3.6 |
| UUCCAGUACAUGUAAACCAAA | 51.9 ± 1.9 | 62.2 ± 11 | 77.4 ± 15 | 61.9 ± 12 |
| UAGACAGACAUGUAAACCAAA | 31.4 ± 7.5 | 83 ± 10 | 79.5 ± 3.5 | 61.2 ± 5.7 |
| UCGUAACACAUGUAAACCAAA | 64.5 ± 6.8 | 88.2 ± 6.7 | 85.8 ± 7.8 | 90.5 ± 13 |
| UCGAAAAACAUGUAAACCAAA | 77.4 ± 9.2 | 74.1 ± 26 | 87.2 ± 3.3 | 87 ± 12 |
| UUAGCCUACAUGUAAACCAAA | 23.3 ± 4.5 | 54.4 ± 3.3 | 40 ± 3.4 | 13.4 ± 4.2 |
| UAUCACGACAUGUAAACCAAA | 118 ± 12 | 36.7 ± 3.4 | 92.5 ± 5.1 | 114 ± 15 |
| UAACGAGACAUGUAAACCAAA | 81.4 ± 7.7 | 64.9 ± 4.1 | 88.3 ± 5.8 | 85.2 ± 13 |
| UGCACAUACAUGUAAACCAAA | 45.6 ± 4.9 | 58.2 ± 10 | 60.7 ± 12 | 83.2 ± 15 |
